# Data as given in a collection of fitness landscapes (doi:10.1016/j.celrep.2020.107928).
# Whole data set: some 81,000 sequences, median “one-hybrid fitness for binding NBS DNA” near -0.1, cut for the highest 2% near 0.36. The list shows a part of the results.
# B1: Caulobacter ParB omega fusion; a variant is named by its letters at X, in order, B8GW30 (parent)
# chain: MESVVVGEPGMSEGRRGLGRGLSALLGEVDAAPAQAPGEQLGGSREAPIEILQRNPDQPRRTFREEDLEDLSNSIREKGVLQPILVRPSPDTAGEYQIVAGERAWRAAQRAGLKTVPIMVRELDDLAVLEIGIIENVQRADLNVLEEALSYKVLMEKFERTQENIAQTIGKSXSHVANXMRLLXLPDEVQSYLVSGELTAXHARAIAAAADPVALAKQIIEGGLSVRETEALARKAPNLSAGKSKGGRPPRVKDTDTQALESDLSSVLGLDVSIDHRGSTGTLTITYATLEQLDDLCNRLTRGI
# Variants of: B1
# Test: one-hybrid fitness for binding NBS DNA (the Noc-binding site; scaled: cognate 1, non-cognate 0); higher = stronger binding
# Conditions: with NBS DNA site
# Method in brief: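 In E. coli USO, a HIS3 reporter with its site placed 19 bp from the promoter was used to select Caulobacter ParB variants randomised at four specificity codons. Growth lasted 48 hours at 37°C on histidine-free M9 containing 0.1 mM IPTG and 5 mM 3-AT. Fitness was taken as the log change in variant-to-wild-type read ratio from Illumina sequencing of pre- and post-selection plasmids, rescaled between the non-cognate and cognate sites.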
row,Variant,one-hybrid fitness for binding NBS DNA
1,SWWS,≤ 0.2
2,FALT,≤ 0.2
3,YFSM,≤ 0.2
4,ATGG,≤ 0.2
5,ADKC,≤ 0.2
6,GIER,≤ 0.2
7,ANTC,≤ 0.2
8,TETY,≤ 0.2
9,YINT,≤ 0.2
10,YGPL,≤ 0.2
11,KSSG,≤ 0.2
12,DWTV,≤ 0.2
13,LNCS,≤ 0.2
14,PNKA,≤ 0.2
15,PAHR,≤ 0.2
16,ASSM,≤ 0.2
17,RERW,≤ 0.2
18,GPCS,≤ 0.2
19,DLPL,≤ 0.2
20,QSWD,≤ 0.2
21,LNTL,≤ 0.2
22,RDRL,≤ 0.2
23,NEHI,≤ 0.2
24,AQYT,≤ 0.2
25,KTSA,≤ 0.2
26,RLWV,≤ 0.2

row,Variant,one-hybrid fitness for binding NBS DNA
1,WEIT,≤ 0.2
2,ICHG,≤ 0.2
3,NWQY,≤ 0.2
4,MRCC,≤ 0.2
5,PWAA,≤ 0.2
6,PYKH,≤ 0.2
7,KSFT,≤ 0.2
8,EYSR,≤ 0.2
9,THTA,≤ 0.2
10,FRPR,≤ 0.2
11,APKW,≤ 0.2
12,NTSK,≤ 0.2
13,IYPT,≤ 0.2
14,GMHF,≤ 0.2
15,YWKN,≤ 0.2
16,RNRK,≤ 0.2
17,NRAY,≤ 0.2
18,QRWM,0.254
19,AMFA,≤ 0.2
20,AWTC,≤ 0.2
21,WTVP,≤ 0.2
22,HNMP,≤ 0.2
23,RYHF,≤ 0.2
24,QYHT,0.417
25,PEER,≤ 0.2
26,ICSR,≤ 0.2

row,Variant,one-hybrid fitness for binding NBS DNA
1,SDIM,≤ 0.2
2,PVDI,≤ 0.2
3,LDSD,≤ 0.2
4,FHRK,≤ 0.2
5,TLWC,≤ 0.2
6,SYKH,≤ 0.2
7,WENR,≤ 0.2
8,RRGG,0.245
9,DDYR,≤ 0.2
10,VLFT,≤ 0.2
11,KLGL,≤ 0.2
12,WLNP,≤ 0.2
13,ATRI,≤ 0.2
14,RADS,≤ 0.2
15,PLAF,≤ 0.2
16,YLRA,≤ 0.2
17,LYCR,≤ 0.2
18,PGED,≤ 0.2
19,HSVN,≤ 0.2
20,SFRG,≤ 0.2
21,AKMA,≤ 0.2
22,HTLH,≤ 0.2
23,DQEG,≤ 0.2
24,QHEG,≤ 0.2
25,PALV,≤ 0.2
26,REQT,≤ 0.2

row,Variant,one-hybrid fitness for binding NBS DNA
1,QKFC,≤ 0.2
2,YVLI,≤ 0.2
3,WGRC,≤ 0.2
4,EDFV,≤ 0.2
5,YSSI,≤ 0.2
6,YTSD,≤ 0.2
7,QRES,0.469
8,PSGC,≤ 0.2
9,VYCV,≤ 0.2
10,QIWY,≤ 0.2
11,SRGG,≤ 0.2
12,YSTG,≤ 0.2
13,WGIG,≤ 0.2
14,RHGY,≤ 0.2
15,STSG,≤ 0.2
16,NRIR,≤ 0.2
17,CYHT,≤ 0.2
18,NCQT,≤ 0.2
19,RTFF,≤ 0.2
20,RGKF,≤ 0.2
21,GINR,≤ 0.2
22,FWKY,≤ 0.2
23,RGSN,≤ 0.2
24,TQMS,≤ 0.2
25,GKMT,≤ 0.2
26,MRDG,≤ 0.2

row,Variant,one-hybrid fitness for binding NBS DNA
1,RKTG,≤ 0.2
2,FTCS,≤ 0.2
3,NMKW,≤ 0.2
4,ESAR,≤ 0.2
5,WWSR,≤ 0.2
6,HRDE,≤ 0.2
7,PWKR,≤ 0.2
8,TTMA,≤ 0.2
9,QKES,0.275
10,TKRK,≤ 0.2
11,MTDN,≤ 0.2
12,CTAL,≤ 0.2
13,KKFG,≤ 0.2
14,IVGT,≤ 0.2
15,SCPC,≤ 0.2
16,WNIP,≤ 0.2
17,SHDL,≤ 0.2
18,TMQG,≤ 0.2
19,SYKI,≤ 0.2
20,QLMM,≤ 0.2
21,QQMP,≤ 0.2
22,KYRK,≤ 0.2
23,VAKP,≤ 0.2
24,HHPP,≤ 0.2
25,SLFR,≤ 0.2
26,CCPD,≤ 0.2

row,Variant,one-hybrid fitness for binding NBS DNA
1,SRRM,≤ 0.2
2,QLSY,≤ 0.2
3,TKTH,≤ 0.2
4,RSRL,≤ 0.2
5,NTQA,≤ 0.2
6,AFNT,≤ 0.2
7,DITP,≤ 0.2
8,QMRD,0.277
9,KRIS,0.308
10,DSKR,≤ 0.2
11,QANM,≤ 0.2
12,WVRF,≤ 0.2
13,TTAK,≤ 0.2
14,FHGR,≤ 0.2
15,QKKD,0.211
16,PSVK,≤ 0.2
17,ITTR,≤ 0.2
18,SRIR,≤ 0.2
19,CTLG,≤ 0.2
20,SDAI,≤ 0.2
21,RVVL,≤ 0.2
22,CCAS,≤ 0.2
23,MRDY,≤ 0.2
